Measurements taken from article PMC12820563, “FoxP3 forms a head-to-head dimer in vivo and stabilizes its multimerization on adjacent microsatellites”.
The other results are listed elsewhere or left out.

The sequences below were run against T1, MBP-FoxP1dN (Mus musculus, UniProt P58462 326-579) (assay: PD-seq (MBP pull-down with sequencing); 20 mM Tris-HCl pH 7.5, 100 mM NaCl, 1.5 mM MgCl2, 0.4 uM protein, 0.1 uM dsDNA library, 30 min, room temperature, amylose pull-down; high values mean tight binding). Conditions: protein: recombinant; tags: His6-MBP; chain copies: 2; dsDNA, one strand shown.
T1 sequence: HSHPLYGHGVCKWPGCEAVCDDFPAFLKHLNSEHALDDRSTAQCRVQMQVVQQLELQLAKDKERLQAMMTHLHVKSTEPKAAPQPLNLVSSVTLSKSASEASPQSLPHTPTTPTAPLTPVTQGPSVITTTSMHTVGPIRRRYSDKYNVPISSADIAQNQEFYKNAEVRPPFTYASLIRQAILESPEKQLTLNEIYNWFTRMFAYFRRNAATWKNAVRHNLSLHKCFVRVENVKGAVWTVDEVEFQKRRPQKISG
Summary of the method: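 A degenerate double-stranded DNA library, filled in with Klenow, was added at 0.1 µM to 0.4 µM His6-MBP-tagged mouse FoxP3 or FoxP1 fragment lacking the N-terminus, expressed in E. coli. Incubation lasted 30 min at room temperature in Tris pH 7.5 buffer with NaCl and MgCl2, after which complexes were collected on amylose resin, washed three times, digested with proteinase K to free the DNA, barcoded by PCR and sequenced by Illumina. Binding is the pooled-replicate reads-per-million enrichment of pull-down over input.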

In order of rising binding signal:
1. GATGATTGTTCTCCCAGCTGATGAATTGAACCGGTCGAGTAAACAAATTTTCCTAATCTTTCTGTTCAAGCGCCATCTAC  0.755 RPM ratio (pull-down/input)
2. GATGATTGTTCTCCCAGCTGATGAATTTTACCGGTCGAGTAAACAAATTTTCCTAATCTTTCTGTTCAAGCGCCATCTAC  0.803 RPM ratio (pull-down/input)
3. GATGATTGTTCTCCCAGCTGATGAATTTCTCTACTCGAGTAAACAAATTTTCCTAATCTTTCTGTTCAAGCGCCATCTAC  0.809 RPM ratio (pull-down/input)
4. GATGATTGTTCTCCCAGCTGATGAATTTAACACCTCGAGTAAACAAATTTTCCTAATCTTTCTGTTCAAGCGCCATCTAC  0.824 RPM ratio (pull-down/input)
5. GATGATTGTTCTCCCAGCTGATGAATTTGGGCCGTCGAGTAAACAAATTTTCCTAATCTTTCTGTTCAAGCGCCATCTAC  0.828 RPM ratio (pull-down/input)
6. GATGATTGTTCTCCCAGCTGATGAATTATGAAGGTCGAGTAAACAAATTTTCCTAATCTTTCTGTTCAAGCGCCATCTAC  0.831 RPM ratio (pull-down/input)
7. GATGATTGTTCTCCCAGCTGATGAATTGGCTAACTCGAGTAAACAAATTTTCCTAATCTTTCTGTTCAAGCGCCATCTAC  0.84 RPM ratio (pull-down/input)
8. GATGATTGTTCTCCCAGCTGATGAATTAATCAGGTCGAGTAAACAAATTTTCCTAATCTTTCTGTTCAAGCGCCATCTAC  0.844 RPM ratio (pull-down/input)
9. GATGATTGTTCTCCCAGCTGATGAATTGCTGAGCTCGAGTAAACAAATTTTCCTAATCTTTCTGTTCAAGCGCCATCTAC  0.845 RPM ratio (pull-down/input)
10. GATGATTGTTCTCCCAGCTGATGAATTTCGTCGCTCGAGTAAACAAATTTTCCTAATCTTTCTGTTCAAGCGCCATCTAC  0.845 RPM ratio (pull-down/input)
11. GATGATTGTTCTCCCAGCTGATGAATTCTGACGATCGAGTAAACAAATTTTCCTAATCTTTCTGTTCAAGCGCCATCTAC  0.853 RPM ratio (pull-down/input)
12. GATGATTGTTCTCCCAGCTGATGAATTTTAGGATTCGAGTAAACAAATTTTCCTAATCTTTCTGTTCAAGCGCCATCTAC  0.868 RPM ratio (pull-down/input)
13. GATGATTGTTCTCCCAGCTGATGAATTTTTCGACTCGAGTAAACAAATTTTCCTAATCTTTCTGTTCAAGCGCCATCTAC  0.872 RPM ratio (pull-down/input)
14. GATGATTGTTCTCCCAGCTGATGAATTAGCTTTGTCGAGTAAACAAATTTTCCTAATCTTTCTGTTCAAGCGCCATCTAC  0.873 RPM ratio (pull-down/input)
15. GATGATTGTTCTCCCAGCTGATGAATTCTTATACTCGAGTAAACAAATTTTCCTAATCTTTCTGTTCAAGCGCCATCTAC  0.878 RPM ratio (pull-down/input)
16. GATGATTGTTCTCCCAGCTGATGAATTGGAAGTGTCGAGTAAACAAATTTTCCTAATCTTTCTGTTCAAGCGCCATCTAC  0.88 RPM ratio (pull-down/input)
17. GATGATTGTTCTCCCAGCTGATGAATTGCCGTGGTCGAGTAAACAAATTTTCCTAATCTTTCTGTTCAAGCGCCATCTAC  0.892 RPM ratio (pull-down/input)
18. GATGATTGTTCTCCCAGCTGATGAATTCAACCCTTCGAGTAAACAAATTTTCCTAATCTTTCTGTTCAAGCGCCATCTAC  0.906 RPM ratio (pull-down/input)
19. GATGATTGTTCTCCCAGCTGATGAATTCAAAGATTCGAGTAAACAAATTTTCCTAATCTTTCTGTTCAAGCGCCATCTAC  0.915 RPM ratio (pull-down/input)
20. GATGATTGTTCTCCCAGCTGATGAATTAGATGAGTCGAGTAAACAAATTTTCCTAATCTTTCTGTTCAAGCGCCATCTAC  0.917 RPM ratio (pull-down/input)
21. GATGATTGTTCTCCCAGCTGATGAATTCCTCATATCGAGTAAACAAATTTTCCTAATCTTTCTGTTCAAGCGCCATCTAC  0.922 RPM ratio (pull-down/input)
22. GATGATTGTTCTCCCAGCTGATGAATTTTAAATTTCGAGTAAACAAATTTTCCTAATCTTTCTGTTCAAGCGCCATCTAC  0.924 RPM ratio (pull-down/input)
23. GATGATTGTTCTCCCAGCTGATGAATTTTAGGTTTCGAGTAAACAAATTTTCCTAATCTTTCTGTTCAAGCGCCATCTAC  0.926 RPM ratio (pull-down/input)
24. GATGATTGTTCTCCCAGCTGATGAATTTGGACGCTCGAGTAAACAAATTTTCCTAATCTTTCTGTTCAAGCGCCATCTAC  0.926 RPM ratio (pull-down/input)
25. GATGATTGTTCTCCCAGCTGATGAATTTGAACATTCGAGTAAACAAATTTTCCTAATCTTTCTGTTCAAGCGCCATCTAC  0.931 RPM ratio (pull-down/input)
26. GATGATTGTTCTCCCAGCTGATGAATTTCTACATTCGAGTAAACAAATTTTCCTAATCTTTCTGTTCAAGCGCCATCTAC  0.939 RPM ratio (pull-down/input)
27. GATGATTGTTCTCCCAGCTGATGAATTGCGAGGTTCGAGTAAACAAATTTTCCTAATCTTTCTGTTCAAGCGCCATCTAC  0.945 RPM ratio (pull-down/input)
28. GATGATTGTTCTCCCAGCTGATGAATTGCTACGCTCGAGTAAACAAATTTTCCTAATCTTTCTGTTCAAGCGCCATCTAC  0.952 RPM ratio (pull-down/input)
29. GATGATTGTTCTCCCAGCTGATGAATTAGTTCAGTCGAGTAAACAAATTTTCCTAATCTTTCTGTTCAAGCGCCATCTAC  0.955 RPM ratio (pull-down/input)
30. GATGATTGTTCTCCCAGCTGATGAATTCGTGTAGTCGAGTAAACAAATTTTCCTAATCTTTCTGTTCAAGCGCCATCTAC  0.961 RPM ratio (pull-down/input)
31. GATGATTGTTCTCCCAGCTGATGAATTTTTTTGTTCGAGTAAACAAATTTTCCTAATCTTTCTGTTCAAGCGCCATCTAC  0.971 RPM ratio (pull-down/input)
32. GATGATTGTTCTCCCAGCTGATGAATTTCCGTATTCGAGTAAACAAATTTTCCTAATCTTTCTGTTCAAGCGCCATCTAC  0.973 RPM ratio (pull-down/input)
33. GATGATTGTTCTCCCAGCTGATGAATTTCGGTTATCGAGTAAACAAATTTTCCTAATCTTTCTGTTCAAGCGCCATCTAC  0.974 RPM ratio (pull-down/input)
34. GATGATTGTTCTCCCAGCTGATGAATTAACCGTATCGAGTAAACAAATTTTCCTAATCTTTCTGTTCAAGCGCCATCTAC  0.975 RPM ratio (pull-down/input)
35. GATGATTGTTCTCCCAGCTGATGAATTACTACCGTCGAGTAAACAAATTTTCCTAATCTTTCTGTTCAAGCGCCATCTAC  0.989 RPM ratio (pull-down/input)
36. GATGATTGTTCTCCCAGCTGATGAATTACAGCGCTCGAGTAAACAAATTTTCCTAATCTTTCTGTTCAAGCGCCATCTAC  0.996 RPM ratio (pull-down/input)
37. GATGATTGTTCTCCCAGCTGATGAATTATAACCGTCGAGTAAACAAATTTTCCTAATCTTTCTGTTCAAGCGCCATCTAC  1.01 RPM ratio (pull-down/input)
38. GATGATTGTTCTCCCAGCTGATGAATTGCGGAGATCGAGTAAACAAATTTTCCTAATCTTTCTGTTCAAGCGCCATCTAC  1.02 RPM ratio (pull-down/input)
39. GATGATTGTTCTCCCAGCTGATGAATTATCAGCTTCGAGTAAACAAATTTTCCTAATCTTTCTGTTCAAGCGCCATCTAC  1.02 RPM ratio (pull-down/input)
40. GATGATTGTTCTCCCAGCTGATGAATTCGGTCAATCGAGTAAACAAATTTTCCTAATCTTTCTGTTCAAGCGCCATCTAC  1.02 RPM ratio (pull-down/input)
41. GATGATTGTTCTCCCAGCTGATGAATTAATAATTTCGAGTAAACAAATTTTCCTAATCTTTCTGTTCAAGCGCCATCTAC  1.03 RPM ratio (pull-down/input)
42. GATGATTGTTCTCCCAGCTGATGAATTCCTATATTCGAGTAAACAAATTTTCCTAATCTTTCTGTTCAAGCGCCATCTAC  1.03 RPM ratio (pull-down/input)
43. GATGATTGTTCTCCCAGCTGATGAATTACAGAGATCGAGTAAACAAATTTTCCTAATCTTTCTGTTCAAGCGCCATCTAC  1.03 RPM ratio (pull-down/input)
44. GATGATTGTTCTCCCAGCTGATGAATTGCGCCCATCGAGTAAACAAATTTTCCTAATCTTTCTGTTCAAGCGCCATCTAC  1.04 RPM ratio (pull-down/input)
45. GATGATTGTTCTCCCAGCTGATGAATTGTTCCCATCGAGTAAACAAATTTTCCTAATCTTTCTGTTCAAGCGCCATCTAC  1.05 RPM ratio (pull-down/input)
46. GATGATTGTTCTCCCAGCTGATGAATTATATATTTCGAGTAAACAAATTTTCCTAATCTTTCTGTTCAAGCGCCATCTAC  1.06 RPM ratio (pull-down/input)
47. GATGATTGTTCTCCCAGCTGATGAATTACCAACTTCGAGTAAACAAATTTTCCTAATCTTTCTGTTCAAGCGCCATCTAC  1.06 RPM ratio (pull-down/input)
48. GATGATTGTTCTCCCAGCTGATGAATTAGAATTATCGAGTAAACAAATTTTCCTAATCTTTCTGTTCAAGCGCCATCTAC  1.07 RPM ratio (pull-down/input)
49. GATGATTGTTCTCCCAGCTGATGAATTACGTTCATCGAGTAAACAAATTTTCCTAATCTTTCTGTTCAAGCGCCATCTAC  1.07 RPM ratio (pull-down/input)
50. GATGATTGTTCTCCCAGCTGATGAATTAGCAACGTCGAGTAAACAAATTTTCCTAATCTTTCTGTTCAAGCGCCATCTAC  1.08 RPM ratio (pull-down/input)
51. GATGATTGTTCTCCCAGCTGATGAATTTTTTATATCGAGTAAACAAATTTTCCTAATCTTTCTGTTCAAGCGCCATCTAC  1.08 RPM ratio (pull-down/input)
52. GATGATTGTTCTCCCAGCTGATGAATTCATTTAATCGAGTAAACAAATTTTCCTAATCTTTCTGTTCAAGCGCCATCTAC  1.08 RPM ratio (pull-down/input)
53. GATGATTGTTCTCCCAGCTGATGAATTAACGTATTCGAGTAAACAAATTTTCCTAATCTTTCTGTTCAAGCGCCATCTAC  1.12 RPM ratio (pull-down/input)
54. GATGATTGTTCTCCCAGCTGATGAATTCCACGCATCGAGTAAACAAATTTTCCTAATCTTTCTGTTCAAGCGCCATCTAC  1.12 RPM ratio (pull-down/input)
55. GATGATTGTTCTCCCAGCTGATGAATTGTCACTATCGAGTAAACAAATTTTCCTAATCTTTCTGTTCAAGCGCCATCTAC  1.14 RPM ratio (pull-down/input)
56. GATGATTGTTCTCCCAGCTGATGAATTAGACACATCGAGTAAACAAATTTTCCTAATCTTTCTGTTCAAGCGCCATCTAC  1.15 RPM ratio (pull-down/input)
57. GATGATTGTTCTCCCAGCTGATGAATTACTACACTCGAGTAAACAAATTTTCCTAATCTTTCTGTTCAAGCGCCATCTAC  1.16 RPM ratio (pull-down/input)
58. GATGATTGTTCTCCCAGCTGATGAATTGTTCCTATCGAGTAAACAAATTTTCCTAATCTTTCTGTTCAAGCGCCATCTAC  1.17 RPM ratio (pull-down/input)
59. GATGATTGTTCTCCCAGCTGATGAATTAACAACCTCGAGTAAACAAATTTTCCTAATCTTTCTGTTCAAGCGCCATCTAC  1.19 RPM ratio (pull-down/input)
60. GATGATTGTTCTCCCAGCTGATGAATTACTAACTTCGAGTAAACAAATTTTCCTAATCTTTCTGTTCAAGCGCCATCTAC  1.21 RPM ratio (pull-down/input)
61. GATGATTGTTCTCCCAGCTGATGAATTTACTCCGTCGAGTAAACAAATTTTCCTAATCTTTCTGTTCAAGCGCCATCTAC  1.21 RPM ratio (pull-down/input)
62. GATGATTGTTCTCCCAGCTGATGAATTACTTGTGTCGAGTAAACAAATTTTCCTAATCTTTCTGTTCAAGCGCCATCTAC  1.24 RPM ratio (pull-down/input)
63. GATGATTGTTCTCCCAGCTGATGAATTTTAAACATCGAGTAAACAAATTTTCCTAATCTTTCTGTTCAAGCGCCATCTAC  1.25 RPM ratio (pull-down/input)
